# Test results from the supplement of paper PMC11417369.
# ± gives the standard deviation of the averaged measurements. The list shows a part of the results.
# Test system: PfAP2-I AP2 domain 3 (GST-tagged)
# Test: gcPBM binding intensity (ln(normalized median fluorescence intensity)); higher = stronger DNA binding
# How it was run: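 DNA-binding domains from P. falciparum, fused to GST and produced in E. coli, were put on an Agilent 4 × 180k double-stranded probe array for 1 h in 1× PBS holding 1% milk, 0.2 mg/ml BSA, 0.5% salmon testes DNA and 0.03% Triton X-100. Probes were primer-extended, 36 bp long and drawn from intergenic genomic regions, with negative controls included. After Alexa488 anti-GST antibody detection and a 488 nm scan, binding intensity was set as the highest Masliner-normalised natural-log median intensity across replicate spots of either probe orientation.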
row,Sequence,gcPBM binding intensity (ln)
1,TATATTTATTTATATACACACACTTGTATAAAAAAT [CACACA_site2036],7.87 ± 0.41
2,TATCTATATGGGAACACACTCATAAATATATATCTA [CACACA_site4815],7.59 ± 0.47
3,TATATCAAAATACATACACACATTTGTATATACATT [CACACA_site2696],7.78 ± 0.48
4,TATATACAGAAACACACACACACATATATATATATA [CACACA_site2247],9.31 ± 0.34
5,AAAATAAATAAATACACACACACGAATATATATATA [CACACA_site1683],8.99 ± 0.17
6,TTTTAAAAATAATAAATAAATAAAATTGAAGTTCCA [CACACA_negctrl_site305],7.21 ± 0.71
7,GGTCTTATTTTTAGTAGTACAAATATAATATACATA [XGTACX_site6483],8.1 ± 0.25
8,TTTTTTTTTTTTTGTTGTACCCATCATATATACATA [XGTACX_site4342],8.21 ± 0.57
9,TATAAAAATATTTAATGTACGAATCTGTGATATATC [XGTACX_site7881],7.71 ± 0.39
10,AAAATACACGCATACACACACACACGCGCACATATA [CACACA_site6448],8.37 ± 0.64
11,TTTTCATGTTGTAAAGCATGCTTTACTCATAAAAAA [TGCATGCA_site917],7.9 ± 0.59
12,ATTATTAAAAGAAGAAGTACTTATATATTAATATTA [XGTACX_site5227],7.71 ± 0.4
13,CTAAACAGAATTATCACACATATAAATATAAACATA [CACACA_site4560],7.56 ± 0.47
14,ATATATTACATATGTGTGCACGTTCCAAAATTTTTA,10.2 ± 0.23
15,TTATTTTATTTTGAAGCATGCTTTTTGCTGTGATAA [TGCATGCA_site278],7.53 ± 0.66
16,AAATAATATTTATACACACACACATATTTATATACA [CACACA_site6403],7.91 ± 0.64
17,TTATGCGTTTGCAAAAGTACATATCTATTATTTTTA [XGTACX_site7609],7.72 ± 0.5
18,ATTGTATATGTATATGCACACAATATATGTACTTAT [CACACA_site2611],8.97 ± 0.18
19,GATATATTATTTGAATGTACATATTATATTTATATT [XGTACX_site907],7.71 ± 0.25

row,Sequence,gcPBM binding intensity (ln)
1,TAACATATTATATATACATGCATACGTGAACTAATC [TGCATGCA_site888],8.11 ± 0.71
2,GTTAGAATTGTTAGGTGGTCAAAAAGGAGAAAAAAA [XGTACX_site2086],8.35 ± 0.35
3,TTTTTTTAGTTAATTAAACACACAAAAAAAAAAATA [CACACA_site9301],7.65 ± 0.48
4,ATTATTTAATTTTATTAAAAAAAAACAAATTAACAG [GTGCAC_negctrl_site152],7.61 ± 0.38
5,AAAAGAAAATTAAATTAACACACATAAATATATATA [CACACA_site8482],7.91 ± 0.58
6,TTCACATACAGAAACACACACATATTTATAAATTAA [CACACA_site7699],7.79 ± 0.54
7,TTTTGATATAAATATTAGATTAATAAATAAAAAAAT [CACACA_negctrl_site1635],7.8 ± 0.39
8,TTAAAATAGATATTAGTGCAAAAAAAAAAAAATAAA,10.7 ± 0.23
9,TTTTTTGTTTGAATGGTGCATTTTGTAATTATATTT,10.3 ± 0.41
10,ATAATATCATAATATTGTACATATTTTATTTTAAAT [XGTACX_site1115],7.79 ± 0.38
11,CAACTAACATATATTCAACACACATATACCTTCAAC [CACACA_site8988],7.72 ± 0.49
12,AATACCTTTTAATAATGTACAAACAAAAATTAGAGA [XGTACX_site6850],7.72 ± 0.54
13,TATATATTAAAAATAGTGCAAAATAATATATATATA [GTGCAC_site9716],10.78 ± 0.021
14,ATATATATATATATATGTACATATTCATCTTATTCT [XGTACX_site1537],9.3 ± 0.4
15,AAGGGGAGAAAAATAAACGAAATATATACATACATA [XGTACX_negctrl_site88],7.83 ± 0.42
16,ACAAATAAATATATATGTACATATATTTTTTTATTT [XGTACX_site2989],7.64 ± 0.34
17,TTTTATTTATATTATACACACAAGGAAAAAAAAAAA [CACACA_site7690],8.2 ± 0.77
18,TTTATGCACGCGTGCACACACATATGAAAAAAGGTA [CACACA_site3315],10.9 ± 0.72
19,TATGTTTAAATATATTGTACGCACGTATGTTTTTAA [XGTACX_site1108],8.57 ± 0.33

row,Sequence,gcPBM binding intensity (ln)
1,ATATTAATTTTTATTACACACTCTCAATTTTTATTT [CACACA_site58],8.15 ± 0.55
2,AAAATATACATAAACACACACAAAACGTTTAAGAAA [CACACA_site1071],7.84 ± 0.63
3,GTTTAACTGTTTTATACACACAATGTATCCAATAAA [CACACA_site5612],7.9 ± 0.58
4,TTTTAGTTAATTCATGCATGTAAAGTTTTATTTATA [TGCATGCA_site252],7.72 ± 0.54
5,AAAAAAAAAAAAAAAGTACACACTTTTGCGTACATG [CACACA_site3097],8.71 ± 0.5
6,ATGTCTATATATTAAGGTACACATATATGCTATTCA [XGTACX_site6008],7.71 ± 0.48
7,GTATAATATGAACACACACACACACCCAAAAAAAAA [CACACA_site5152],8.33 ± 0.31
8,TTATGGAACCCCATTCGTACATAAATATTTTATATA [XGTACX_site7112],7.68 ± 0.49
9,ATACATATTAACAAGGTGCAAATGGATTTCATAAAA [GTGCAC_site9775],10.5 ± 0.33
10,AATTGTTCGATATATGCACACAGTTTTGTTATTTTT [CACACA_site1615],8.78 ± 0.25
11,TATTTATATTTATATACACACTATATAACTCAAACA [CACACA_site6611],7.8 ± 0.53
12,CTAGCAAATACATACACACACACACGGATACCTATA [CACACA_site7609],8.07 ± 0.46
13,TATATAACTTTATTTTTCTTTACTTATTTTATTTTA [GTGCAC_negctrl_site66],7.5 ± 0.5
14,ATATATATATATATATGTACATATTATTAATAATAT [XGTACX_site6667],9.23 ± 0.48
15,TTTTTTAAAATATATATAATGAATTTTTTTTTTTTT [CACACA_negctrl_site1577],7.23 ± 0.57
16,AAAGAAAAAAAAAAAAGTACATAAATATAAAAAGAA [XGTACX_site6753],7.96 ± 0.57
17,TTTTATTATTTATATACACACTTGCTGAAATGTTAT [CACACA_site5919],7.87 ± 0.79
18,TATAATAATAATGATAGTACGTATGAGTTCAAAAAA [XGTACX_site608],7.79 ± 0.68
19,TATATACAAATATGCTGTACAAAAAAAAAAAAAAAA [XGTACX_site4732],8.05 ± 0.53
